± gives the standard deviation of the averaged measurements. The list shows a part of the results.
These sequences were tested on PfAP2-LT AP2 domain (GST-tagged) (assay: gcPBM binding intensity (ln(normalized median fluorescence intensity)); higher = stronger DNA binding).
How it was run: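 Probes on an Agilent 4 × 180k array were primer-extended, double-stranded and 36 bp long, taken from intergenic genomic regions, with negative controls added. GST-tagged P. falciparum DNA-binding domains from E. coli, about 25 μg on average, were applied to the array for 1 h in 1× PBS containing 1% milk, 0.2 mg/ml BSA, 0.5% salmon testes DNA and 0.03% Triton X-100. Binding intensity, obtained after Alexa488 anti-GST antibody detection and a 488 nm scan, is the highest Masliner-normalised natural-log median intensity across replicate spots of either probe orientation.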

| Sequence | gcPBM binding intensity (ln) |
| --- | --- |
| TATGGTATATACAACACACACACATATGTATAAATA [CACACA_site6562] | 9.64 ± 0.33 |
| ATTTATACATGCTAATGTACTTATTTCACCTATATC [XGTACX_site3120] | 9.04 ± 0.46 |
| CAAGTATTAATTATGTGTACATATATATATATATAT [XGTACX_site5311] | 9.74 ± 0.22 |
| TTAATATTGTATTTCACACATAATTTAATATACTCA [CACACA_site5678] | 8.66 ± 0.49 |
| TATAATGAGGATAATAGTACATATGAATACAAAAAA [XGTACX_site3665] | 8.93 ± 0.52 |
| TACACAAGCAGACACACACACATATAGATTTATATA [CACACA_site6715] | 9.65 ± 0.35 |
| GCCATAAAAATATATACACACATAAAAAAAAATTAT [CACACA_site1176] | 9.13 ± 0.46 |
| TCTTAAGGAAAAGAGTGTACAGAAATTTTTATTAAC [XGTACX_site6139] | 8.55 ± 0.5 |
| AATTATATTACAAACTGTACATATATAATTTGTCCA [XGTACX_site6009] | 8.68 ± 0.42 |
| ATCCGAGTGTGAAATACACACATGATAATGTGAATG [CACACA_site919] | 9.29 ± 0.4 |
| TTAAATAAGTAATTATGTACATATAATATTCTTTAT [XGTACX_site5280] | 8.6 ± 0.42 |
| TATAGGAATATATGGTGTACCTATAAATCTGACATA [XGTACX_site8111] | 8.73 ± 0.42 |
| ATTTATATATTTATACGTACTTATATATTGTTACAT [XGTACX_site6254] | 9.21 ± 0.46 |
| AAAAATAAAAATTGCACACTAAAAAATTACGCACGA [CACACA_site3418] | 8.94 ± 0.35 |
| TAGAAAATATAAAAATGTACGTAAATAAAATGTGCA [XGTACX_site3459] | 9.01 ± 0.5 |
| TTCAATGCATGTCCATGTACATATAAAAAAAAATAC [XGTACX_site1597] | 8.71 ± 0.49 |
| TTTTTCTTTCTTTCTTTTTTAATATTACAAATGTAT [XGTACX_negctrl_site267] | 8.49 ± 0.59 |
| TTATTAAAACAAAATGTACACACATATAATTTAATG [CACACA_site8193] | 8.78 ± 0.45 |
| CACCCTTTACACAAGGTGCATACTTTATTATATTTT [GTGCAC_site9778] | 8.9 ± 0.46 |
| TGTTGGCAGGTGAATGCATGCATATAAGTCTATCTG [TGCATGCA_site781] | 9.06 ± 0.47 |
| AAAGTAGAATATCCCCTACACACCCAAATAATTTAC [CACACA_site1255] | 9.53 ± 0.16 |
| AATATTTTAATGCACACACACAAAAAAAAAAAAAAA [CACACA_site7374] | 9.18 ± 0.33 |

| Sequence | gcPBM binding intensity (ln) |
| --- | --- |
| AATCCTTTACGACACACACACAAAAAAAAAAAAAAA [CACACA_site6449] | 9.27 ± 0.44 |
| TTAAAAAAATTAATATGTACATATATTTATATATAT [XGTACX_site5317] | 8.51 ± 0.49 |
| TATATATTTTATTTATGTACGAAAATAAATTAAATT [XGTACX_site3628] | 8.32 ± 0.34 |
| TATTAAAAAGAGGTGACACACACATATAAATCTAAA [CACACA_site9243] | 9.12 ± 0.42 |
| ACATCATAGAAAAATTGATATATATATATATATATA [CACACA_negctrl_site130] | 10.01 ± 0.035 |
| TCCACAAAGCATGTAACACACAACATATAAGACATA [CACACA_site972] | 9.22 ± 0.47 |
| AACCACATACCTATAACACACATATACAATATAGAT [CACACA_site7023] | 9.35 ± 0.42 |
| ATTGTAATAAATTGTAGTACATGTAAGGTTTTATTT [XGTACX_site1005] | 9.09 ± 0.36 |
| ATAACTTATTTTTAAAGTACATTATTATATATATAT [XGTACX_site1620] | 8.68 ± 0.49 |
| TTAAGAATATTTTCATGTACTCATTTTTTTTGTTAT [XGTACX_site1814] | 8.69 ± 0.45 |
| AATAAAAATATATCCACACACATATATAAATATGTA [CACACA_site6415] | 9.22 ± 0.32 |
| ATTACATATGTGAGTTGTACTATAAATATATAATAT [XGTACX_site3718] | 8.81 ± 0.47 |
| AAACTTATGTTTACATGTACAGAACTTTATATTATG [XGTACX_site4843] | 8.85 ± 0.42 |
| TATTATATATATAGGTGTACGCATTTGTCCTTTATA [XGTACX_site1385] | 8.93 ± 0.43 |
| TCGAACATTAACATAACACACATATAGATTTATATA [CACACA_site7380] | 8.98 ± 0.38 |
| TTATTCTTTAACTAAAATTATATATATATATTATAC [CACACA_negctrl_site1597] | 8.56 ± 0.5 |
| TTGTATGCTTCCCGACTACATTATGCCATAAATGTA [TGCATGCA_negctrl_site136] | 8.81 ± 0.28 |
| TAAACATTTTTAATTTTGTAAAATTTTAAATAAAAA [XGTACX_negctrl_site612] | 7.89 ± 0.42 |
| TTTTTTATTGTGAAACTGATATTATATTTTTTATAA [GTGCAC_negctrl_site559] | 8.37 ± 0.49 |
| ACAAACAAAGAAAGAACACACATACACAAGATACCT [CACACA_site7353] | 9.54 ± 0.26 |
| TGAATATTTTATGATTGTACATATTATAATAAACAT [XGTACX_site6113] | 8.59 ± 0.4 |
| AAAACAAACATTACACGTACAAAACAAGTTATAGAC [XGTACX_site6320] | 9.26 ± 0.51 |

| Sequence | gcPBM binding intensity (ln) |
| --- | --- |
| TTTTTGATATTAAAGGGTACATTATTTACAAAAAAA [XGTACX_site5284] | 8.22 ± 0.41 |
| CTGCCTTCCATACCCACACACTTCCCATATATTTTA [CACACA_site5491] | 9.2 ± 0.44 |
| ATGCTTTTTTATAAAAGTACATAAAGTTTTTACACT [XGTACX_site7307] | 8.48 ± 0.47 |
| GATCCTGGTTCTTGTGGTACTTGTTCATTTGTTATA [XGTACX_site7164] | 9.21 ± 0.41 |
| ATTCTTTTATTTAGTAGTACATTTGTATTTTATTCA [XGTACX_site5790] | 8.91 ± 0.45 |
| TAAAAAAATTTAACATGTACAAATATTGAAAAGGAC [XGTACX_site7608] | 8.95 ± 0.41 |
| ATTAAAAAAGAATATACACACCAAAACTGTTTGTTA [CACACA_site4687] | 8.66 ± 0.37 |
| TACAATTCGTAATACACACACATATATATATATATT [CACACA_site3751] | 9.485 ± 0.092 |
| GAAGAATAAATATGCACACATGCATATATTTTTACA [CACACA_site3459] | 8.88 ± 0.37 |
| AGAAAAAAAAAAAAAAAAAAAAAATTGAATATATAT [TGCATGCA_negctrl_site55] | 8.51 ± 0.41 |
| TTTATTATCTTATTCACACACATATATATATATATA [CACACA_site2869] | 9.54 ± 0.15 |
| ATATATTTTTACCATACACACATATAACAAATATAT [CACACA_site7706] | 9.01 ± 0.4 |
| TGTTTTTATAATATTAGTACATAATATACATAATTC [XGTACX_site2787] | 8.55 ± 0.41 |
| AATAAATTAATTTTGGGTACATATATATATATATAT [XGTACX_site3807] | 9.6 ± 0.31 |
| AAATATATATAAATGAGTACTTATGGTAACATATAT [XGTACX_site6362] | 8.84 ± 0.42 |
| AGAGCATAATAAAACACACACATACATACCTATATA [CACACA_site6566] | 9.68 ± 0.38 |
| TTCCACATTTTACAGACACACACAATTTATATTACG [CACACA_site8572] | 9.16 ± 0.34 |
| ATAAATAATTATAATTGTACACATATATATATATAC [XGTACX_site3998] | 8.91 ± 0.33 |
| AAAAAATATTGAAGTACACACATTATGAACTTTTTT [CACACA_site1733] | 8.78 ± 0.42 |
| TATATATATATATATACATGCATATATATAATATAT [TGCATGCA_site763] | 9.37 ± 0.014 |
| TTAAGATCCTAAAAAACACACAATTGTGAATAATAA [CACACA_site3872] | 8.86 ± 0.39 |
| GTAAGTTGTGCATTCACACACATATATATATATATA [CACACA_site3303] | 9.94 ± 0.11 |

| Sequence | gcPBM binding intensity (ln) |
| --- | --- |
| TGATTAAATAAATATATATATTTATATATTATACAG [CACACA_negctrl_site1596] | 8.34 ± 0.45 |
| TATATATATATATATGTGCACTGGACATATTTTTAT [GTGCAC_site9721] | 9.76 ± 0.2 |
| CAAATAAATATTAAAAGTACACACAGATACACTAAT [XGTACX_site3749] | 9.18 ± 0.35 |
| GCTCTATCAAAAAAATGTACACATATTATCATTCAT [XGTACX_site143] | 8.72 ± 0.47 |
| TTTTTATTTAATAGTTGTACATTGAAAAATATGTAT [XGTACX_site3025] | 8.38 ± 0.47 |
| AATATTTATATTTAGTGTACAGAAATAAAAAAAAAA [XGTACX_site6066] | 8.53 ± 0.49 |
| ATATACATTTAAATGTGTACATAATAAAATAAAAAA [XGTACX_site8170] | 8.81 ± 0.42 |
| CAAAAAAAAAAAAAAACACACATTAAATTAGAAAGA [CACACA_site7271] | 8.62 ± 0.54 |
| GCTAATTTATTTTGCAGTACATATATAATAATATAT [XGTACX_site478] | 8.63 ± 0.42 |
| TCCTCATTTTATCATACACACTTGTTTATATGGGTG [CACACA_site4650] | 9 ± 0.44 |
| ACCCATAAAAATTATGCACACTTAATAAAGCGAAAT [CACACA_site5722] | 8.96 ± 0.46 |
| ATAATTTATTTTAAAAGTACTCAATTTGCTTTTCTC [XGTACX_site5749] | 8.65 ± 0.47 |
| TTTACAAAAAATTATACACACACGTACAGATAAATA [CACACA_site4678] | 9.26 ± 0.33 |
| TATATTTATTATAATTGTACATAAAATAAACTAAGA [XGTACX_site4318] | 8.4 ± 0.4 |
| AAATAATTAAACATATGTACATATTATATATATATA [XGTACX_site6774] | 8.94 ± 0.19 |
| TTTTAAAGTTGTGAGCTTCATTTTTATTTATATGTA [CACACA_negctrl_site1505] | 8.61 ± 0.54 |
| TTACAATTAATAAAGTGTACTTAACTATTATATATA [XGTACX_site481] | 8.43 ± 0.4 |
| TTGATCTATAATAATACACACTTACATAATTAATTA [CACACA_site6273] | 8.6 ± 0.45 |
| ATATATATATATGTCTGTACATAAAAAATAATAAAT [XGTACX_site3122] | 8.975 ± 0.064 |
| GGAAAATGAAAAACAAAAAAAAAAAAAAAAAAATGA [TGCATGCA_negctrl_site432] | 8.57 ± 0.53 |
| ATATTCCTACATACAACACACGACGTTCTCATAAGA [CACACA_site231] | 8.93 ± 0.29 |
| AAAAATAGACAAAAGAGTACAAGAAAAAAAGGGTTC [XGTACX_site7843] | 8.98 ± 0.55 |

Reference: the supplement of paper PMC11417369
